# Results reported in the supplement of paper PMC8728848.
# Some of the results follow.
# Legend:
# Assay in all cases: glycan array binding signal (z-score within array); higher = stronger binding
# Conditions in all cases: glycan notation: IUPAC condensed, linker removed
# [1] = molecular target: GalNAc(b1-3)Gal(a1-4)Gal(b1-4)GlcNAc
# In short: (§1)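 Glycan array data were curated from 3228 arrays in the Consortium for Functional Glycomics database and kept only where the protein sequence was available. Glycan names were converted to IUPAC-condensed notation, and columns mapping to the same glycan were averaged. The binding signal is a within-array Z-score, averaged across arrays of the same protein sequence at different concentrations or buffers and across linkers. Negative Z-scores can be read as non-binding.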
# [2] = molecular target: GalNAc(b1-3)Gal(a1-4)Gal(b1-4)GlcNAc(b1-3)Gal(b1-4)Glc
# In short: as §1
# [3] = molecular target: GalNAc(b1-3)Gal(a1-6)Gal(b1-4)Glc
# In short: as §1
# [4] = molecular target: GalNAc(b1-3)GalNAc
# In short: as §1
# [5] = molecular target: GalNAc(b1-4)GlcNAc
# In short: as §1
# [6] = molecular target: GalNAc(b1-4)GlcNAc(b1-2)Man(a1-3)[GalNAc(b1-4)GlcNAc(b1-2)Man(a1-6)]Man(b1-4)GlcNAc(b1-4)GlcNAc
# In short: as §1
# [7] = molecular target: Glc(a1-4)Glc
# In short: as §1
# [8] = molecular target: Glc(a1-6)Glc(a1-6)Glc
# In short: as §1
# [9] = molecular target: Glc(b1-4)Glc
# In short: as §1
# [10] = molecular target: Glc(b1-6)Glc
# In short: as §1
# [11] = molecular target: GlcA(b1-3)Gal
# In short: as §1
# [12] = molecular target: GlcA(b1-3)GlcNAc
# In short: as §1
# [13] = molecular target: GlcA(b1-6)Gal
# In short: as §1
# [14] = molecular target: GlcNAc(a1-3)Gal(b1-4)GlcNAc
# In short: as §1
# [15] = molecular target: GlcNAc(a1-4)Gal(b1-3)GlcNAc
# In short: as §1
# [16] = molecular target: GlcNAc(a1-4)Gal(b1-4)GalNAc
# In short: as §1
# [17] = molecular target: GlcNAc(a1-4)Gal(b1-4)GlcNAc
# In short: as §1
# [18] = molecular target: GlcNAc(a1-4)Gal(b1-4)GlcNAc(b1-3)Gal(b1-4)Glc
# In short: as §1
# [19] = molecular target: GlcNAc(a1-4)Gal(b1-4)GlcNAc(b1-3)Gal(b1-4)GlcNAc
# In short: as §1
# [20] = molecular target: GlcNAc(a1-4)Gal(b1-4)GlcNAc(b1-3)Gal(b1-4)GlcNAc(b1-3)Gal(b1-4)GlcNAc
# In short: as §1
# [21] = molecular target: GlcNAc(a1-4)Gal(b1-4)GlcNAc(b1-3)Gal(b1-4)[Fuc(a1-3)]GlcNAc(b1-3)Gal(b1-4)[Fuc(a1-3)]GlcNAc
# In short: as §1
# [22] = molecular target: GlcNAc(a1-6)Gal(b1-4)GlcNAc
# In short: as §1
# [23] = molecular target: GlcNAc(b1-2)Gal(b1-3)GalNAc
# In short: as §1
# [24] = molecular target: GlcNAc(b1-2)Man(a1-3)[GlcNAc(b1-2)Man(a1-6)]Man(b1-4)GlcNAc(b1-4)GlcNAc
# In short: as §1
# [25] = molecular target: GlcNAc(b1-2)Man(a1-3)[GlcNAc(b1-2)Man(a1-6)]Man(b1-4)GlcNAc(b1-4)[Fuc(a1-6)]GlcNAc
# In short: as §1
# [26] = molecular target: GlcNAc(b1-2)[GlcNAc(b1-4)]Man(a1-3)[GlcNAc(b1-2)Man(a1-6)]Man(b1-4)GlcNAc(b1-4)GlcNAc
# In short: as §1
# [27] = molecular target: GlcNAc(b1-3)Gal
# In short: as §1
# [28] = molecular target: GlcNAc(b1-3)Gal(b1-3)GalNAc
# In short: as §1
# [29] = molecular target: GlcNAc(b1-3)Gal(b1-4)Glc
# In short: as §1
# [30] = molecular target: GlcNAc(b1-3)Gal(b1-4)GlcNAc
# In short: as §1
# [31] = molecular target: GlcNAc(b1-3)Gal(b1-4)GlcNAc(b1-3)Gal(b1-4)GlcNAc
# In short: as §1
# [32] = molecular target: GlcNAc(b1-3)GalNAc
# In short: as §1
# [33] = molecular target: GlcNAc(b1-3)Man
# In short: as §1
# [34] = molecular target: GlcNAc(b1-3)[GlcNAc(b1-4)][GlcNAc(b1-6)]GlcNAc
# In short: as §1
# [35] = molecular target: GlcNAc(b1-3)[GlcNAc(b1-6)]Gal(b1-4)GlcNAc
# In short: as §1
# [36] = molecular target: GlcNAc(b1-3)[GlcNAc(b1-6)]GalNAc
# In short: as §1
# [37] = molecular target: GlcNAc(b1-4)Gal(b1-4)GlcNAc
# In short: as §1
# [38] = molecular target: GlcNAc(b1-4)GlcNAc
# In short: as §1
# [39] = molecular target: GlcNAc(b1-4)GlcNAc(b1-4)GlcNAc
# In short: as §1
# [40] = molecular target: GlcNAc(b1-4)GlcNAc(b1-4)GlcNAc(b1-4)GlcNAc(b1-4)GlcNAc
# In short: as §1
# [41] = molecular target: GlcNAc(b1-4)GlcNAc(b1-4)GlcNAc(b1-4)GlcNAc(b1-4)GlcNAc(b1-4)GlcNAc
# In short: as §1
# [42] = molecular target: GlcNAc(b1-4)[GlcNAc(b1-6)]GalNAc
# In short: as §1
# [43] = molecular target: GlcNAc(b1-6)Gal(b1-4)GlcNAc
# In short: as §1
# [44] = molecular target: GlcNAc(b1-6)GalNAc
# In short: as §1
# [45] = molecular target: GlcNAc3Prop(b1-4)GlcNAc
# In short: as §1
binder,measurement,setting,value
GH98CBM51-1 (Streptococcus pneumoniae) (protein) MTYLSDMDWSSATHGDIDKTKTVQKDAPFTTGNKGEHTKISLLTSDDKVKYFDKGIGTVADSPSVISYDISGQGFEKFETYIGIDQSANSSRSDHAVVDRIEIEIDGKVVYSSSVTNPEGFRYNTQAQFISVTIPQNAKKISLKSFAGEHTWGDEVVFADAKLIKTVST,glycan array binding signal (z-score),[1],-0.181
same,glycan array binding signal (z-score),[2],-0.191
same,glycan array binding signal (z-score),[3],-0.189
same,glycan array binding signal (z-score),[4],-0.191
same,glycan array binding signal (z-score),[5],-0.187
same,glycan array binding signal (z-score),[6],-0.182
same,glycan array binding signal (z-score),[7],-0.194
same,glycan array binding signal (z-score),[8],-0.192
same,glycan array binding signal (z-score),[9],-0.188
same,glycan array binding signal (z-score),[10],-0.194
same,glycan array binding signal (z-score),[11],-0.193
same,glycan array binding signal (z-score),[12],-0.186
same,glycan array binding signal (z-score),[13],-0.19
same,glycan array binding signal (z-score),[14],-0.193
same,glycan array binding signal (z-score),[15],-0.189
same,glycan array binding signal (z-score),[16],-0.189
same,glycan array binding signal (z-score),[17],-0.186
same,glycan array binding signal (z-score),[18],-0.189
same,glycan array binding signal (z-score),[19],-0.186
same,glycan array binding signal (z-score),[20],-0.128
same,glycan array binding signal (z-score),[21],-0.173
same,glycan array binding signal (z-score),[22],-0.194
same,glycan array binding signal (z-score),[23],-0.197
same,glycan array binding signal (z-score),[24],-0.182
same,glycan array binding signal (z-score),[25],-0.181
same,glycan array binding signal (z-score),[26],-0.186
same,glycan array binding signal (z-score),[27],-0.187
same,glycan array binding signal (z-score),[28],-0.18
same,glycan array binding signal (z-score),[29],-0.19
same,glycan array binding signal (z-score),[30],-0.196
same,glycan array binding signal (z-score),[31],-0.187
same,glycan array binding signal (z-score),[32],-0.194
same,glycan array binding signal (z-score),[33],-0.192
same,glycan array binding signal (z-score),[34],-0.183
same,glycan array binding signal (z-score),[35],-0.189
same,glycan array binding signal (z-score),[36],-0.192
same,glycan array binding signal (z-score),[37],-0.189
same,glycan array binding signal (z-score),[38],-0.189
same,glycan array binding signal (z-score),[39],-0.196
same,glycan array binding signal (z-score),[40],-0.195
same,glycan array binding signal (z-score),[41],-0.195
same,glycan array binding signal (z-score),[42],-0.192
same,glycan array binding signal (z-score),[43],-0.196
same,glycan array binding signal (z-score),[44],-0.164
same,glycan array binding signal (z-score),[45],-0.191
